Results on seven molecules are retold here after publication PMC6715715 (Communications Biology, 2019).

Assay [1] concerns the target T1, T25-AtcC (Shewanella oneidensis MR-1) (UniProt Q8EFW9).
T1 sequence: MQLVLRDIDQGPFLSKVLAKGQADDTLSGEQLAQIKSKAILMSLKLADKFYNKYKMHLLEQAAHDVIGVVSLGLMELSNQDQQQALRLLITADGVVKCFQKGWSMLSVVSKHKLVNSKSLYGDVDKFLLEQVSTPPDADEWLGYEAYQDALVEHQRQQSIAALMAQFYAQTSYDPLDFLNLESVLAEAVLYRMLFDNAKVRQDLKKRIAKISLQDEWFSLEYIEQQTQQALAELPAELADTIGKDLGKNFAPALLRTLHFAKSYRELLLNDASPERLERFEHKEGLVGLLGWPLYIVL
Put plainly: two-hybrid.

Assay [2] deals with T2, T25-AtcB (Shewanella oneidensis MR-1) (UniProt Q8EFW7).
T2 sequence: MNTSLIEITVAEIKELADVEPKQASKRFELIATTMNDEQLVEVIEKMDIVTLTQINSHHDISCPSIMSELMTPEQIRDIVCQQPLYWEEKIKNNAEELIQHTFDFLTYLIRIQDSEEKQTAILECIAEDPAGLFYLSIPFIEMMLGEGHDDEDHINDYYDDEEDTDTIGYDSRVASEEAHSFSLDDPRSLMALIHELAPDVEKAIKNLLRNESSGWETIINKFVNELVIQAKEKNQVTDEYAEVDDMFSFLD
Put plainly: two-hybrid.

The target in assay [3] is T3, T25-AtcA (Shewanella oneidensis MR-1) (UniProt Q8EFW6).
T3 sequence: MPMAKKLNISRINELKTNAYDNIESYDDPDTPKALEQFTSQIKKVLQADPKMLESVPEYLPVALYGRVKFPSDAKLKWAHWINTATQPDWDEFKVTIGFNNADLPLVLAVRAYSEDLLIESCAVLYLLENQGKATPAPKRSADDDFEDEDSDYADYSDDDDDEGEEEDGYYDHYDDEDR
Put plainly: two-hybrid.

Assay [4] addresses T4, CBP-AtcB (Shewanella oneidensis MR-1) (UniProt Q8EFW7).
T4 sequence: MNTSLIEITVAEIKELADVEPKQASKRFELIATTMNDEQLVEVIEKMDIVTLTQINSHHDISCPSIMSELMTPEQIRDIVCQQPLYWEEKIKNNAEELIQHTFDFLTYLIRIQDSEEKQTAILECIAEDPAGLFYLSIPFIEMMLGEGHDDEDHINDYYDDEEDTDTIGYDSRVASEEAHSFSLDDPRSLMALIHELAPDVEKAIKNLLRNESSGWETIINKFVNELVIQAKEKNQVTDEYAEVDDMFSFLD
Put plainly: pull-down.

Assay [5] addresses T5, Strep-HtpG (Shewanella oneidensis MR-1) (UniProt Q8EFF7).
T5 sequence: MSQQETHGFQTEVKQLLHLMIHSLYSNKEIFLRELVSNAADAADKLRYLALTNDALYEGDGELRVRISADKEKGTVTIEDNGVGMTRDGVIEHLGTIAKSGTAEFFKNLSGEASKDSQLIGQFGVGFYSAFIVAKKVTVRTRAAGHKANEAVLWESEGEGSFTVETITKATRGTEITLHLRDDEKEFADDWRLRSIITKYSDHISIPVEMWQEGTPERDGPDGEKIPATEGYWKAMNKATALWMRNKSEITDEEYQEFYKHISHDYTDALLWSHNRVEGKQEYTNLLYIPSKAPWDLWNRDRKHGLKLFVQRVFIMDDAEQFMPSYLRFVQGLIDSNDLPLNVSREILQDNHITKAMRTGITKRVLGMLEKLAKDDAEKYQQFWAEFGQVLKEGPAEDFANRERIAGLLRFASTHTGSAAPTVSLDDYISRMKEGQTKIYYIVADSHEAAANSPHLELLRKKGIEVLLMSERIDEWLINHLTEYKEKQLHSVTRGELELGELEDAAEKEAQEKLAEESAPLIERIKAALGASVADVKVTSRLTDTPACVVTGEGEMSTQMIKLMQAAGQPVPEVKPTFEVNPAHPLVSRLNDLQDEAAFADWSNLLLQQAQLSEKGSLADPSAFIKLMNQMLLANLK
Nature of the assay: pull-down; both purified.

The next assay concerns the target T6, AtcC-6His (SO_1846) (Shewanella oneidensis MR-1, UniProt Q8EFW9 1-298).
T6 construct: AtcC (SO_1846) of Shewanella oneidensis MR-1, 34 kDa; pBad33-AtcC was made by moving the insert of pET-AtcC, so both give AtcC with a C-terminal 6-His tag; also called AtcC with a 6His-tag; not shown: His6, C-terminal, kept
T6 sequence (looked up): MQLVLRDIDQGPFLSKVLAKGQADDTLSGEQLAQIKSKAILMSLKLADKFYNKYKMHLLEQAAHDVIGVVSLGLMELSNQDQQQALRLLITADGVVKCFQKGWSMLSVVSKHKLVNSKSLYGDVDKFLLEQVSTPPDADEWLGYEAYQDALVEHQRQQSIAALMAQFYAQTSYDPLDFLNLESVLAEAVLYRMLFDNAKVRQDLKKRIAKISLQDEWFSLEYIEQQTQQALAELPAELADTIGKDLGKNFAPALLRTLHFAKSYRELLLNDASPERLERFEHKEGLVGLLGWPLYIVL
Put plainly: ITC; 25 °C, buffer B (50 mM Tris-HCl, 100 mM KCl, 10% glycerol, 1 mM DTT); 285 µM ligand titrated into 36 µM AtcC in the cell; one set of sites model; both purified. (In general: ITC needs no label: the signal is the heat of the interaction.)

Results are given in words; binding and its absence hold for the method and conditions named. For some assays here: Binding seen in cells or lysates may run through a third protein. Some results given as binding are weak or reduced against the parent protein; the word gives no strength. For some assays here: Sequences can lack the tags named with a protein.

B1: pep21, synthetic peptide corresponding to the last 21 amino acids of AtcJ (peptide)
peptide: NNVIVTDPNSAMRELWDQFYP
notes: last 21 amino acids of AtcJ (SO_1850) of Shewanella oneidensis (94 amino acids; N74 is the first residue of the extension); The methods sentence says 'last 21 amino acids of AtcC'; results and legends say AtcJ; also called the peptide
Consider B1, for which the binding result in assay [1] is on record as “binds”.

B2: T18-AtcC (protein, UniProt Q8EFW9 1-298)
chain: MQLVLRDIDQGPFLSKVLAKGQADDTLSGEQLAQIKSKAILMSLKLADKFYNKYKMHLLEQAAHDVIGVVSLGLMELSNQDQQQALRLLITADGVVKCFQKGWSMLSVVSKHKLVNSKSLYGDVDKFLLEQVSTPPDADEWLGYEAYQDALVEHQRQQSIAALMAQFYAQTSYDPLDFLNLESVLAEAVLYRMLFDNAKVRQDLKKRIAKISLQDEWFSLEYIEQQTQQALAELPAELADTIGKDLGKNFAPALLRTLHFAKSYRELLLNDASPERLERFEHKEGLVGLLGWPLYIVL
As to B2, the binding entry in assay [2] is “binds”; in assay [3] it was “no binding”.

B3: AtcC-6His (SO_1846) (protein, UniProt Q8EFW9 1-298)
chain: MQLVLRDIDQGPFLSKVLAKGQADDTLSGEQLAQIKSKAILMSLKLADKFYNKYKMHLLEQAAHDVIGVVSLGLMELSNQDQQQALRLLITADGVVKCFQKGWSMLSVVSKHKLVNSKSLYGDVDKFLLEQVSTPPDADEWLGYEAYQDALVEHQRQQSIAALMAQFYAQTSYDPLDFLNLESVLAEAVLYRMLFDNAKVRQDLKKRIAKISLQDEWFSLEYIEQQTQQALAELPAELADTIGKDLGKNFAPALLRTLHFAKSYRELLLNDASPERLERFEHKEGLVGLLGWPLYIVL
With B3, the binding entry in assay [4] is recorded as “binds”; in assay [5], “no binding”.

B4: AtcJ-6His (Adaptation to cold protein J, SO_1850) (natural protein, Shewanella oneidensis MR-1, UniProt Q8EFW5 1-94, looked up)
chain: MINHFSVLGIKPSAKEDDIKKAYRRLSNKYHPDKLLGASDEEKEQASQQLERVKKAYEVLSDPKLRNAFIRDFNNVIVTDPNSAMRELWDQFYP
notes: AtcJ (SO_1850) of Shewanella oneidensis MR-1, a 94-amino acid J-domain protein (J-domain 1-73 and a C-terminal extension of 21 amino acids); also called wild-type AtcJ; AtcJ-WT
For the molecule B4, the binding entry in assay [2] is recorded as “no binding”; in assay [3] it was “no binding”; in assay [1] it was “binds”.

B5: T18-AtcJΔC (domain or fragment, UniProt Q8EFW5 1-73)
chain: MINHFSVLGIKPSAKEDDIKKAYRRLSNKYHPDKLLGASDEEKEQASQQLERVKKAYEVLSDPKLRNAFIRDF
For the molecule B5, in assay [1], the binding entry was “no binding”.

B6: AtcJΔC (AtcJ lacking the last 21 amino acids), purified (domain or fragment, UniProt Q8EFW5 1-73)
chain: MINHFSVLGIKPSAKEDDIKKAYRRLSNKYHPDKLLGASDEEKEQASQQLERVKKAYEVLSDPKLRNAFIRDF
With B6, the binding entry with AtcC-6His (SO_1846) was “no binding (tested: 285 µM AtcJΔC titrated into 36 µM AtcC)”.

B7: Strep-AtcB (natural protein, Shewanella oneidensis MR-1, UniProt Q8EFW7 1-252, looked up)
chain: MNTSLIEITVAEIKELADVEPKQASKRFELIATTMNDEQLVEVIEKMDIVTLTQINSHHDISCPSIMSELMTPEQIRDIVCQQPLYWEEKIKNNAEELIQHTFDFLTYLIRIQDSEEKQTAILECIAEDPAGLFYLSIPFIEMMLGEGHDDEDHINDYYDDEEDTDTIGYDSRVASEEAHSFSLDDPRSLMALIHELAPDVEKAIKNLLRNESSGWETIINKFVNELVIQAKEKNQVTDEYAEVDDMFSFLD
notes: AtcB (SO_1848) of Shewanella oneidensis MR-1, 29 kDa; also called AtcB with a Strep-tag; purified AtcB
Consider B7, for which, in assay [3], the binding entry is on record as “no binding”.
